In article PMC7293033, “Regulation of mRNA export through API5 and nuclear FGF2 interaction” (Nucleic Acids Research, 2020) one finds Kd data, which are given here for 1 molecule.

The target of this assay is T1, GST-UAP56 (human, UniProt Q13838).
T1 construct: UAP56 (DDX39B), ATP-dependent RNA helicase, in pGEX-4T-3; GST-UAP56 is the only UAP56 construct described; also called DDX39B; source: purified recombinant (pGEX-4T-3 construct)
As to the kind of experiment: SPR; UAP56 with API5, FGF2, the API5–FGF2 complex or PBK as analyte proteins; purified recombinant proteins. The settings on record: both partners purified.

Chain of GST-UAP56 (Q13838 whole entry): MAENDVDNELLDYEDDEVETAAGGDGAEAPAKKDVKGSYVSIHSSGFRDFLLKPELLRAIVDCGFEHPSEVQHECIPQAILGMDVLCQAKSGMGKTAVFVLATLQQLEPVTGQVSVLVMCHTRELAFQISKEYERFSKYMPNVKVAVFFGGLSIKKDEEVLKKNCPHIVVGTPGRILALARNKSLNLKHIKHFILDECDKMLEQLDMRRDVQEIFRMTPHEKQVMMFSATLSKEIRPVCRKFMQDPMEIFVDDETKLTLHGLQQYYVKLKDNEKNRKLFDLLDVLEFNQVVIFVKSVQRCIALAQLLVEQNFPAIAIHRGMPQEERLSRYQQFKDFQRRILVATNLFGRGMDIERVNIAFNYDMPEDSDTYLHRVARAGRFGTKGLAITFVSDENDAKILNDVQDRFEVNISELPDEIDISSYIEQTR

B1: His-FGF2, LMW FGF2 ([…], C211S/C229S) (natural protein)
chain: not shown
notes: human FGF2, low-molecular-weight isoform, […], codon-optimised synthetic gene in a modified pET-28b(+); C211S/C229S corresponds to C69S/C87S of earlier FGF2 structures; also called His-LMW FGF2; fibroblast growth factor 2; source: E. coli Rosetta2(DE3), purified (Ni-NTA, Superdex SEC)
Consider B1, for which the dissociation constant Kd – broadly, the concentration at which binding is half-saturated – turned out to be 382 ± 6 nM.
